Data: patent US8809377B2, “Deubiquitinase inhibitors and methods for use of the same” (The Regents of the University of Michigan, priority 2010, dated 2014)
Where two headings read alike, the source gives them in different places.

Test system: Norwalk virus replicon
Details: for reduction in viral genome titers by qRT-PCR: Norwalk virus replicon, human hepatoma (HuH-7), after 24 hrs of treatment

## CCC[C@H](NC(=O)/C(C#N)=C/c1cccc(Br)n1)c1ccccc1 [WP1130]
HG23 cells, 5 μM, 48 hr post-treatment
  anti-NV effect (NV genome, qRT-PCR): significant anti-NV effect
  reduction in viral genome titers by qRT-PCR: 50%
Listed as HWP1130
  reduction in viral genome titers by qRT-PCR: 50%
